Laboratory results as given in PMC4336329 (PLoS ONE, 2015).
Hit rate of the full screen: of about 310,000 compounds, about 2,200 (0.71%) showed an effect of 50% or more. Effects have a minus sign here. Some of the results follow.

What follows are compounds tested against human ether-à-go-go-related gene (hERG) potassium channel (human, UniProt Q12809) (assay: primary screen, population patch clamp on CHO cells stably expressing hERG).
human ether-à-go-go-related gene (hERG) potassium channel, sequence (Q12809 whole entry, looked up): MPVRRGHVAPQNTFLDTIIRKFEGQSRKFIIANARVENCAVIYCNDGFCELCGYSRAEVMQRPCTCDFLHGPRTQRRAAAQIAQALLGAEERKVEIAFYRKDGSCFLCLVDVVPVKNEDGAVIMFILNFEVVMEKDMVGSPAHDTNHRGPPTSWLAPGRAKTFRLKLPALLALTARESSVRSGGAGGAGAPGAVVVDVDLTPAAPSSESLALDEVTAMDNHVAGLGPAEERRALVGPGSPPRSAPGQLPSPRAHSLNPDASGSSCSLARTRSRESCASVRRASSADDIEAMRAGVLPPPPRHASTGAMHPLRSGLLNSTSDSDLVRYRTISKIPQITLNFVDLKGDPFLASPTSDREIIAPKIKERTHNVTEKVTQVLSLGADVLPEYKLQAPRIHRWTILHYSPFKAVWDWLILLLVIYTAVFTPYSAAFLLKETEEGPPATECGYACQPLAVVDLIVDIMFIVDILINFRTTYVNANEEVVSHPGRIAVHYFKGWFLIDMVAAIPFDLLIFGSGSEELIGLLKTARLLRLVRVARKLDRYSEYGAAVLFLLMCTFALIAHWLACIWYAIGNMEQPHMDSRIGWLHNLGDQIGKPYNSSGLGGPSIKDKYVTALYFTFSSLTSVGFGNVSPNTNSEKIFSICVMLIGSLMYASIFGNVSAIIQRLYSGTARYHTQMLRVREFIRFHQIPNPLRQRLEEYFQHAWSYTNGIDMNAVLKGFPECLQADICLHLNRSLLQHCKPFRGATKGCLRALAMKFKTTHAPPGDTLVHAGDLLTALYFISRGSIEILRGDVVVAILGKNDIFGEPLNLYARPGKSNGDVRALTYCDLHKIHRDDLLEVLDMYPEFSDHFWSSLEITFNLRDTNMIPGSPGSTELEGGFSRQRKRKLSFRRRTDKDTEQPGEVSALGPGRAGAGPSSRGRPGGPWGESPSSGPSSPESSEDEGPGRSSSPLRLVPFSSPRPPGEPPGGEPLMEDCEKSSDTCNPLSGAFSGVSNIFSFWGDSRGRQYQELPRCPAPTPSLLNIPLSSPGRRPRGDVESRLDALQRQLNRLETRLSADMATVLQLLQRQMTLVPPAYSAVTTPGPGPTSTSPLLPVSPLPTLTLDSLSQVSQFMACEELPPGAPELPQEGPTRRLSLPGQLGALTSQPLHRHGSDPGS

Row | Structure (SMILES) | hERG current change (%, negative = inhibition) at 1uM [%]
1 | O=C(/C=C/c1cccs1)Nc1ccc(S(=O)(=O)Nc2ncccn2)cc1 | 16.4
2 | COc1ccc2ccc3c(c2c1)N=C[C@]1(O3)N(C)c2ccccc2C1(C)C | 4.84
3 | CCOCCCn1c(SCc2ccccc2)nnc1-c1ccncc1 | 6.98
4 | C=CCN(CC=C)C(=O)c1cc(Cl)ccc1[N+](=O)[O-] | 9.3
5 | Cc1cccc(NCC(=O)N/N=C/c2cccc(Br)c2)c1 | 0.326
6 | CCOc1ccc(N2CC(C(=O)Nc3ccccc3N3CCCC3)CC2=O)cc1 (stereo not drawn) | -7.71
7 | Cc1ccc(-c2cc(-c3ccccc3)no2)cc1 | 12.8
8 | CCC(=O)N1CCC2(CC1)Oc1ccc(F)cc1C(=O)C21CC(c2ccccc2)=NO1 (stereo not drawn) | 16.7
9 | O=C(O/N=C1\CCS(=O)(=O)c2sccc21)C1CC1 | -3.05
10 | NNc1nc2ccc(Cl)cc2s1 | 1.16
11 | Cc1cccc(/C(N)=N/OC(=O)c2ccc(F)cc2)c1 | 3.4
12 | Cc1ccc(S(=O)(=O)N2CC3(C)CN(S(=O)(=O)c4ccc(C)cc4)CC(C)(C2)C3=O)cc1 | 14.4
13 | O=C(NCC(c1ccco1)N1CCc2ccccc2C1)c1ccccc1 (stereo not drawn) | -3.13
14 | Cc1ccc2oc(=O)c(-c3ccc(O)cc3)c(C)c2c1 | 16.5
15 | Cc1ccc(CNC(=O)CN2C(=O)NC(C)(c3ccccc3Cl)C2=O)cc1 (stereo not drawn) | 10.8
16 | C/C(=N\NC(=O)Cc1c(F)cccc1Cl)c1cccnc1 | 12
17 | O=C(NCc1ccc(Cl)cc1)C1CCN(S(=O)(=O)c2ccccc2)CC1 | 10.8
18 | C[C@]12CCC3[C@@H](CCC4=CC(=O)CC[C@@]43C=O)C1CCC2=O (stereo partly drawn) | 16.8
19 | COc1cc2c(cc1OC)C1=C(C#N)CN(C3CCCCC3)CN1CC2 | 4.05

Row | Structure (SMILES) | hERG current change (%, negative = inhibition) at 1uM [%]
20 | CCN(CC(=O)Nc1c(F)cccc1F)C(=O)CNC(=O)c1sc2ccccc2c1Cl | 10.7
21 | Cc1ccc(N2C(=O)CS(=O)C(c3ccccc3)C2=O)cc1C (stereo not drawn) | 11.4
22 | O=C1Nc2ccc(Br)cc2/C1=N/N=C/C1=C(N2CCOCC2)C(=C\c2ccccc2)/CC1 | 9.07
23 | COc1ccc(C(=O)OCC(=O)NC2CC2)cc1S(=O)(=O)N1CCOCC1 | 14.2
24 | CCn1c(C)c(C)c2cc(C(=O)NCCCN3CCOCC3)ccc21 | 13.9
25 | CCC1CCCN1Cn1cnc2c([nH]c3ccc(C)cc32)c1=O (stereo not drawn) | -54.9
26 | COc1ccc(-c2c(NC(=O)c3ccco3)oc3c(C)cccc3c2=O)cc1 | 13.8
27 | Cc1cc(Nc2ccccc2)c2c([N+](=O)[O-])cc(C)c(C)c2n1 | -9.78
28 | CC1CCN(CCCNC(=O)c2nn(C)c3c2CS(=O)(=O)c2ccccc2-3)CC1 | 4.87
29 | COc1ccc(CNC(=O)C2CCC(CNS(=O)(=O)c3cccs3)CC2)cc1 (stereo not drawn) | -11.2
30 | CCOc1ccc(NC(=O)CN(C)C(=O)c2sc3ccccc3c2Cl)cc1OCC | 6.83
31 | Cc1ccc(C(CC(=O)O)Nc2nc(N3CCCCC3)nc(N3CCCCC3)n2)cc1 (stereo not drawn) | 3.03
32 | CCOC(=O)C1=C(C)Nc2nnnn2C1c1cccnc1 (stereo not drawn) | 15.2
33 | CNS(=O)(=O)c1cc(Br)ccc1S(=O)c1ccccc1C(=O)O (stereo not drawn) | 13.7
34 | CC1=Nc2cc(Cl)ccc2Oc2ccccc21 | 12.6
35 | COc1ccc(CCNC(=O)C2CCN(S(=O)(=O)c3ccc(OC)c(OC)c3)CC2)cc1OC | 6.7
36 | Cc1ccccc1NC(=O)CCC(=O)N/N=C/c1ccc(F)cc1 | 16.6
37 | COc1ccc(NC(=O)[C@H](C)NC(N)=O)cc1S(=O)(=O)Nc1cc(C)ccc1Br | 9.7
38 | Cc1cc(C)c2[nH]c(O)c(N=NC(=S)NCC3CCCO3)c2c1 (stereo not drawn) | 5.2

Row | Structure (SMILES) | hERG current change (%, negative = inhibition) at 1uM [%]
39 | CC(C(=O)c1cn(C)c2ccccc12)c1ccccc1 (stereo not drawn) | 18.3
40 | CCn1cc(/C=N\NC(=O)c2cc(-c3ccccc3OC)nc3ccccc23)c(C)n1 | 9.66
41 | O=C(CNS(=O)(=O)c1c(Cl)cccc1Cl)N1CCCCCC1 | 12.5
42 | Cn1c(=O)n(Cc2ccccc2F)c2ccccc21 | -14.3
43 | CN(C)c1ccc(C(O)Cc2nc3ccccc3n2C)cc1 (stereo not drawn) | 8.35
44 | CS(=O)(=O)N1CCN(C(=O)Cc2ccccc2Cl)CC1 | 17.7
45 | O=c1c2c(-c3ccc([N+](=O)[O-])cc3)csc2nc2n1CCC2 | -43.9
46 | COc1ccc(OC)c(S(=O)(=O)n2nnc3cc(Cl)ccc32)c1 | 11.1
47 | COc1ccccc1N1CCN(C/C(C)=C/c2ccccc2)CC1 | -10.4
48 | Cc1occc1C(=O)NCc1ccccc1 | 13
49 | COc1ccc(C2(O)CCN(C(=O)c3c(F)cccc3F)CC2)cc1 | 7.24
50 | CC(=O)Nc1ccc(S(=O)(=O)NCC(=O)OCC(=O)N2CCc3ccccc32)cc1 | 2.85
51 | O=C(Nc1ccccc1F)c1ccc(CSc2ccccc2)o1 | 4.79
52 | CN(C)/C=C/C(=O)c1cccc(C(F)(F)F)c1 | 5.24
53 | COC(=O)C1CCCN1C(=O)COc1ccc(Cl)cc1Br (stereo not drawn) | 0.568
54 | O=C(Nc1ccc(F)c(F)c1)c1cnc(-c2ccccc2)nc1-c1ccccc1 | -14.1
55 | Cc1ccc(C(C)C)c(OCC(=O)Nc2sc3c(c2C#N)CC(C)(C)NC3(C)C)c1 | 9.52
56 | CCCCc1nc2ccccc2c(=O)n1NC(=O)c1c(O)c2cccc3c2n(c1=O)CC3 | 3.13
57 | O=C(Nc1ccccc1C(=O)O)c1cc(S(=O)(=O)N2CCOCC2)c(Br)s1 | 16.8
